# Patent publication US10654925B2, “Anti-marinobufagenin antibodies and uses thereof” (priority 2018, dated 2020)
# B1: R4CE-1E: human anti-MBG antibody, VH SEQ ID NO: 57, VL SEQ ID NO: 58 (antibody, listed as Homo sapiens, V domains shown)
# VH: QVQLQESGSGLVKPSQTLSLTCTVSGGSISSSGYYWGWIRQPPGKGLEWIGSIYHSGSTYYNPSLKSRVTISVDTSKNQFSLKLSSVTAADTAVYYCARVQLWQRGFDYWGQGTLVTVSS
# VL: [about 120 residues not listed]
# Key:
# Format in all cases: binding
# [1] = Competitive ELISA, relative CTS specificity, RBG as competitor; conditions: competition with immobilized MBG-BSA; normalized to MBG = 100%
# Method: (§1) The specificity (relative affinity) of anti-MBG antibodies for MBG relative to various cardiotonic steroids (CTSs) was determined in a competitive ELISA. Each anti-MBG antibody was tested for its binding to immobilized MBG in the presence of free MBG, resibufogenin (RBG), cinobufagin (CINO), ouabain (OUB) or digoxin (DIG) as a competitor. A constant amount of an anti-MBG antibody (typically 1-5 μg/mL) and varying concentrations of each CTS (from 10^−12M to 10^−5M) were pre-incubated before being added to the MBG-BSA-coated wells. After washing of the wells, an anti-human Fc, HRP-conjugated secondary antibody (at 1:5000 dilution) was added to the wells and incubated at 37° C. for 1 hr. After washing of the wells, an appropriate HRP reagent (e.g., TMB ultra, Thermo Fisher) was added to the wells. OD at 450 nm was measured by a microplate reader. MBG at 10 μM was assumed to be 100% competed, and MBG at 1 pM was assumed to be 0% competed. The data was plotted as a titration of antibody-antigen binding relative to free CTS concentration in the competition reaction to determine the free CTS concentration (μM) giving 50% maximal binding of antibody to immobilized MBG. The relative specificity of an antibody for a CTS was normalized to MBG=100%.
# [2] = Competitive ELISA, free CTS competitors overall (summary and footnote); conditions: competitors RBG, CINO, OUB, DIG; Table 2
# Method: as §1
# [3] = Competitive ELISA, relative CTS specificity, free MBG as competitor; conditions: competition with immobilized MBG-BSA; normalized to MBG = 100%
# Method: as §1
# [4] = Competitive ELISA, relative CTS specificity, CINO as competitor; conditions: competition with immobilized MBG-BSA; normalized to MBG = 100%
# Method: as §1
# [5] = Competitive ELISA, relative CTS specificity, OUB as competitor; conditions: competition with immobilized MBG-BSA; normalized to MBG = 100%
# Method: as §1
# [6] = Competitive ELISA, relative CTS specificity, DIG as competitor; conditions: competition with immobilized MBG-BSA; normalized to MBG = 100%
# Method: as §1
molecule,measurement,setting,value
B1,Rel. CTS Specificity as % of MBG Binding: RBG,[1],12.5%
same,reaction with CTS competitor molecules,[2],reacted with the CTS competitors RBG and CINO
same,Rel. CTS Specificity as % of MBG Binding: MBG,[3],100%
same,Rel. CTS Specificity as % of MBG Binding: CINO,[4],4%
same,Rel. CTS Specificity as % of MBG Binding: OUB,[5],0%
same,Rel. CTS Specificity as % of MBG Binding: DIG,[6],0%
